# From the supplement of paper PMC10037445
# In all, about 2,900 compounds were measured (“IRF Lucia reporter activity, fold change vs agonist alone”: median about 0.9, highest 2% from about 2.8 on). The list shows a part of the results.
# Tests used:
# [1] = test system: RAW-Dual; experiment: IRF Lucia reporter activity, fold change vs agonist alone; cytotoxicity flag (confluency mask): not cytotoxic; higher = enhanced IRF activity
# How it was run: (§1)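 Cytotoxic wells were those whose IncuCyte confluency was below 70% of agonist controls in both mask sets. The cells were RAW-Dual macrophages at 50,000 cells/well in DMEM on 384-well plates, dosed with 50 nL of library stock by pin tool, stimulated with a PRR agonist 1 h later, and kept at 37 °C, 5% CO2 for 20 hours. IRF and NF-κB reporter activity, as fold change over agonist-alone wells, came from supernatant read by QuantiLuc luminescence and QuantiBlue absorbance, respectively.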
# [2] = test system: RAW-Dual; experiment: IRF Lucia reporter activity, fold change vs agonist alone; higher = enhanced IRF activity; details: library stock concentration (final ~1000-fold dilution): 10 mM, agonist: MPLA (TLR4) […]
# How it was run: as §1
# [3] = test system: RAW-Dual; experiment: IRF Lucia reporter activity, fold change vs agonist alone; cytotoxicity flag (confluency mask): cytotoxic (confluency <70% of control); higher = enhanced IRF activity
# How it was run: as §1
# [4] = agonist: 3'3'-cGAMP (STING) 10 ug/mL
# [5] = cytotoxicity flag (confluency mask): not cytotoxic
# [6] = cytotoxicity flag (confluency mask): cytotoxic (confluency <70% of control)
smiles,measurement,setting,value
C/C(O)=C(\C#N)C(=O)Nc1cc(Br)ccc1Br (library stock concentration (final ~1000-fold dilution): 10 mM),IRF Lucia reporter activity,[1]; [4],1.01
same,IRF Lucia reporter activity,[1]; agonist: LPS (TLR4) 0.1 ug/mL,1.72
Cc1cccc(-c2ccnc3c(C(N)=O)cnn23)c1 (library stock concentration (final ~1000-fold dilution): .1 mM),IRF Lucia reporter activity,[1]; [4],0.997
same,IRF Lucia reporter activity,[1]; agonist: LPS (TLR4) 0.1 ug/mL,0.905
CCC1(C)CC(=O)NC(=O)C1 (library stock concentration (final ~1000-fold dilution): 10 mM),IRF Lucia reporter activity,[1]; [4],1.14
same,IRF Lucia reporter activity,[1]; agonist: LPS (TLR4) 0.1 ug/mL,1.06
CCC1(C)CC(=O)NC(=O)C1,IRF Lucia reporter activity,[2]; [5],1.15
COc1ccc(CC2NCC(O)C2OC(C)=O)cc1 (configuration not stated) (library stock concentration (final ~1000-fold dilution): 10 mM),IRF Lucia reporter activity,[3]; [4],0.0152
same,IRF Lucia reporter activity,[3]; agonist: LPS (TLR4) 0.1 ug/mL,0.0218
COc1ccc(CC2NCC(O)C2OC(C)=O)cc1 (configuration not stated),IRF Lucia reporter activity,[2]; [6],0.0195
COc1cc(OC)c(OC)cc1C=O (library stock concentration (final ~1000-fold dilution): 10 mM),IRF Lucia reporter activity,[1]; [4],0.803
same,IRF Lucia reporter activity,[1]; agonist: LPS (TLR4) 0.1 ug/mL,0.912
COc1cc(OC)c(OC)cc1C=O,IRF Lucia reporter activity,[2]; [5],0.858
COc1cc2c(cc1O)CC1c3c(cc(O)c(OC)c3-2)CCN1C (configuration not stated) (library stock concentration (final ~1000-fold dilution): 10 mM),IRF Lucia reporter activity,[1]; [4],0.988
same,IRF Lucia reporter activity,[1]; agonist: LPS (TLR4) 0.1 ug/mL,0.995
Cc1sc2c(c1C)C(c1ccc(Cl)cc1)=NC(CC(=O)Nc1ccc(O)cc1)c1nnc(C)n1-2 (configuration not stated) (library stock concentration (final ~1000-fold dilution): 10 mM),IRF Lucia reporter activity,[1]; [4],0.216
same,IRF Lucia reporter activity,[1]; agonist: LPS (TLR4) 0.1 ug/mL,0.0933
Cc1sc2c(c1C)C(c1ccc(Cl)cc1)=NC(CC(=O)Nc1ccc(O)cc1)c1nnc(C)n1-2 (configuration not stated),IRF Lucia reporter activity,[2]; [5],0.141
Cc1sc2c(c1C)C(c1ccc(Cl)cc1)=NC(CC(N)=O)c1nnc(C)n1-2 (configuration not stated),IRF Lucia reporter activity,[2]; [5],0.162
Cc1sc2c(c1C)C(c1ccc(Cl)cc1)=NC(CC(N)=O)c1nnc(C)n1-2 (configuration not stated) (library stock concentration (final ~1000-fold dilution): 10 mM),IRF Lucia reporter activity,[1]; [4],0.216
same,IRF Lucia reporter activity,[1]; agonist: LPS (TLR4) 0.1 ug/mL,0.174
O=C(CC1NCCCC1O)Cn1cnc2cc(Br)c(Cl)cc2c1=O (configuration not stated) (library stock concentration (final ~1000-fold dilution): 10 mM),IRF Lucia reporter activity,[3]; [4],0.00797
same,IRF Lucia reporter activity,[3]; agonist: LPS (TLR4) 0.1 ug/mL,0.00984
O=c1[nH]c2ccccc2n1C1CCN(Cc2ccc(-c3nc4cc5nc[nH]c5cc4nc3-c3ccccc3)cc2)CC1 (library stock concentration (final ~1000-fold dilution): 10 mM),IRF Lucia reporter activity,[1]; [4],0.513
same,IRF Lucia reporter activity,[1]; agonist: LPS (TLR4) 0.1 ug/mL,1.79
CN(C)C(=O)Oc1cc(OC(=O)N(C)C)cc(C(O)CNC(C)(C)C)c1.Cl (configuration not stated),IRF Lucia reporter activity,[2]; [5],1.12
CN(C)C(=O)Oc1cc(OC(=O)N(C)C)cc(C(O)CNC(C)(C)C)c1.Cl (configuration not stated) (library stock concentration (final ~1000-fold dilution): 10 mM),IRF Lucia reporter activity,[1]; [4],1.04
same,IRF Lucia reporter activity,[1]; agonist: LPS (TLR4) 0.1 ug/mL,1.14
CCN(CC)CCOC(=O)C(O)(c1ccccc1)c1ccccc1.Cl,IRF Lucia reporter activity,[2]; [5],0.912
CCN(CC)CCOC(=O)C(O)(c1ccccc1)c1ccccc1.Cl (library stock concentration (final ~1000-fold dilution): 10 mM),IRF Lucia reporter activity,[1]; [4],1.24
same,IRF Lucia reporter activity,[1]; agonist: LPS (TLR4) 0.1 ug/mL,0.827
C=C(C)C1Cc2c(ccc3c2OC2COc4cc(OC)c(OC)cc4C2C3=O)O1 (configuration not stated) (library stock concentration (final ~1000-fold dilution): 10 mM),IRF Lucia reporter activity,[1]; [4],0.248
same,IRF Lucia reporter activity,[1]; agonist: LPS (TLR4) 0.1 ug/mL,1.54
C=C(C)C1Cc2c(ccc3c2OC2COc4cc(OC)c(OC)cc4C2C3=O)O1 (configuration not stated),IRF Lucia reporter activity,[2]; [5],1.66
Cn1c(CCCCCCC(=O)NO)nc2cc(N(CCCl)CCCl)ccc21 (library stock concentration (final ~1000-fold dilution): 10 mM),IRF Lucia reporter activity,[3]; [4],0.0439
same,IRF Lucia reporter activity,[3]; agonist: LPS (TLR4) 0.1 ug/mL,0.161
CCCCCc1cc(O)cc(O)c1,IRF Lucia reporter activity,[2]; [5],1.23
CCCCCc1cc(O)cc(O)c1 (library stock concentration (final ~1000-fold dilution): 10 mM),IRF Lucia reporter activity,[1]; [4],0.738
same,IRF Lucia reporter activity,[1]; agonist: LPS (TLR4) 0.1 ug/mL,1.1
COc1cc(C2c3cc4c(cc3C(O)C3COC(=O)C23)OCO4)cc(OC)c1O (configuration not stated) (library stock concentration (final ~1000-fold dilution): 10 mM),IRF Lucia reporter activity,[1]; [4],0.141
same,IRF Lucia reporter activity,[1]; agonist: LPS (TLR4) 0.1 ug/mL,1.66
COc1cc(C2c3cc4c(cc3C(O)C3COC(=O)C23)OCO4)cc(OC)c1O (configuration not stated),IRF Lucia reporter activity,[2]; [5],1.84
C=C1C2CC3(C1O)C1CC4C5(C)CCC(O)C4(C1N(CC)C5)C3CC2=O (configuration not stated) (library stock concentration (final ~1000-fold dilution): 10 mM),IRF Lucia reporter activity,[1]; [4],0.922
same,IRF Lucia reporter activity,[1]; agonist: LPS (TLR4) 0.1 ug/mL,1.04
Cl.Clc1ccc(C(OCCN2CCCCC2)c2ccccc2)cc1 (configuration not stated) (library stock concentration (final ~1000-fold dilution): 10 mM),IRF Lucia reporter activity,[3]; [4],0.603
same,IRF Lucia reporter activity,[3]; agonist: LPS (TLR4) 0.1 ug/mL,1.57
Cl.Clc1ccc(C(OCCN2CCCCC2)c2ccccc2)cc1 (configuration not stated),IRF Lucia reporter activity,[2]; [6],1.32
